According to the supplement of paper PMC10126150:
Values marked as one replicate rest on one cluster of the flow cell; about a third of the high ones do not repeat.

Each sequence was assayed on ATP (assay: switch fluorescence ratio, 500 uM ATP over buffer (Cy3 cluster intensity, sum of 5 cycles each) (fold (ratio)); higher = stronger signal-on switching upon ATP binding; sequences stand for … in TCGTCGGCAGCGTCAGATGTGTATAAGAGACAGTTTTTTTTTTTTTTTTTTTTTTTTT…TC). Conditions: aptamer strand: ATP DNA aptamer (quencher-CACCTGGGGGAGTATTGCGGAGGAAGG + anchor), 100 nM annealed; ATP concentration: 500 uM; one replicate.
How it was run: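 The quencher-labelled ATP aptamer, at 100 nM, was annealed to Cy3-labelled switching-strand clusters on a modified Illumina MiSeq flow-cell. The clusters were imaged in selection buffer, then after 15 min with 500 uM ATP at 22 °C, and this buffer/ATP cycle ran five times with NaOH stripping and re-annealing between runs. Per-cluster fluorescence ratios, summed target-cycle over summed buffer-cycle Cy3 intensity, were averaged per switch-domain sequence. Clusters outside 100-1000 RFU were excluded.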
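Further: ATP exposure 15 min at 22 °C before imaging.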

Row | Sequence | switch fluorescence ratio
1 | CGTTTCGTTC | 1.03
2 | CTAAAACACA | 1.11
3 | CTAAAAGAG | 1.4
4 | CTAAAGATTG | 1.04
5 | CTAAATCGAA | 1.03
6 | CTAAATGCAT | 0.999
7 | CTAACAAAAT | 1.03
8 | CTAACACGGG | 1.02
9 | CTAACGACCT | 1.42
10 | CTAACGGGGT | 1.02
11 | CTAACTTAGC | 1.03
12 | CTAACTTCCG | 1.27
13 | CTAAGCGACC | 1.1
14 | CTAAGCGTCA | 1.03
15 | CTAAGCTATG | 1.01
16 | CTAAGGAGTT | 1.03
17 | CTAAGGTAGA | 1.01
18 | CTAAGTACGC | 1.26
19 | CTAAGTGAAT | 0.986
20 | CTAAGTTAGC | 1.01
21 | CTAAGTTGCC | 0.928
22 | CTAATGAGTA | 0.986
23 | CTAATGCATC | 1.09
24 | CTAATGCCTA | 1.02
25 | CTAATGCTAT | 0.999

Row | Sequence | switch fluorescence ratio
26 | CTAATGCTCG | 1.06
27 | CTAATGTCCG | 1.05
28 | CTAATTGGGT | 1.02
29 | CTAATTTACC | 1.07
30 | CTACAATGCA | 1.04
31 | CTACACCCCC | 1.81
32 | CTACACGACG | 1.23
33 | CTACAGGGAG | 1
34 | CTACCCTCTG | 1.07
35 | CTACCCTGGG | 1.11
36 | CTACCCTTCA | 1.61
37 | CTACCGCTCC | 2.85
38 | CTACCGTGAC | 1.93
39 | CTACCGTTTA | 1.1
40 | CTACCTCCCC | 1.49
41 | CTACGAAAAC | 1.52
42 | CTACGACCAC | 1.86
43 | CTACGCAGGG | 1.32
44 | CTACGCGGAG | 1.24
45 | CTACGGACAT | 1.36
46 | CTACGGGACT | 1.32
47 | CTACGGTGGG | 1.01
48 | CTACGTGCA | 1.06
49 | CTACGTTCCG | 1.09
50 | CTACTCTCTG | 1.05

Row | Sequence | switch fluorescence ratio
51 | CTACTGAGGG | 1.05
52 | CTACTGCTCG | 1.02
53 | CTACTGTCAG | 0.981
54 | CTACTGTCTG | 1.01
55 | CTACTTTTAA | 0.948
56 | CTAGAATGTA | 0.997
57 | CTAGACGGTT | 0.987
58 | CTAGCGCTGA | 1.03
59 | CTAGCTCCT | 0.994
60 | CTAGCTGGGT | 0.936
61 | CTAGCTTGTC | 1.06
62 | CTAGGAGGAG | 0.981
63 | CTAGGGAAGT | 1
64 | CTAGGGACCC | 0.961
65 | CTAGGTAAGG | 0.978
66 | CTAGGTGCAT | 1.25
67 | CTAGGTGCGG | 1
68 | CTAGTCCCCG | 1.01
69 | CTAGTCCTGC | 0.975
70 | CTAGTCGGCG | 0.953
71 | CTAGTTGCGA | 1.03
72 | CTATAGGCGA | 1.01
73 | CTATATGGTC | 1.01
74 | CTATATGGTT | 0.989
75 | CTATATGTAG | 1.01

Row | Sequence | switch fluorescence ratio
76 | CTATATTACG | 1.01
77 | CTATATTGCC | 1.02
78 | CTATATTTAA | 0.997
79 | CTATATTTGG | 0.96
80 | CTATCAGACA | 1.04
81 | CTATCAGCGC | 0.983
82 | CTATCAGCTG | 1.02
83 | CTATCATCG | 0.984
84 | CTATCCATCC | 1.14
85 | CTATCCTAAG | 1.02
86 | CTATCTGTGG | 0.968
87 | CTATGCCAGC | 0.936
88 | CTATGGCAGG | 1.07
89 | CTATGGCCCG | 0.938
90 | CTATGGTATT | 1.01
91 | CTATTACGTT | 1.11
92 | CTATTGCGTG | 1.01
93 | CTATTGGGGT | 1
94 | CTATTGTTCC | 1.1
95 | CTATTTAGTT | 1.01
96 | CTCAATAGGT | 1.02
97 | CTCAATCCGG | 1.03
98 | CTCAATGATG | 1.02
99 | CTCAATGGGC | 1.07
100 | CTCACCAATT | 1.26

Row | Sequence | switch fluorescence ratio
101 | CTCACGACCT | 1.39
102 | CTCACGATAA | 1.45
103 | CTCACTCTCG | 1.05
104 | CTCACTTATT | 1.31
105 | CTCAGACATT | 1.01
106 | CTCAGAGGTA | 0.993
107 | CTCAGATG | 1.02
108 | CTCAGCATCC | 2.01
109 | CTCAGCTGGC | 0.987
110 | CTCAGGACGC | 0.985
111 | CTCAGGCAGA | 1.28
112 | CTCAGGGGCT | 1.22
113 | CTCAGGTCTA | 1.04
114 | CTCAGTATAT | 1.08
115 | CTCAGTGGTC | 1.08
116 | CTCATAAGCA | 1.05
117 | CTCATAGGAG | 1.03
118 | CTCATCAGAT | 1.01
119 | CTCATCCCA | 1.07
120 | CTCATGGGTG | 1.25
121 | CTCATGTTCT | 1.05
122 | CTCATTGTTC | 1.03
123 | CTCATTTGGA | 1.01
124 | CTCCAACTAA | 1.16
125 | CTCCAGACA | 1.1

Row | Sequence | switch fluorescence ratio
126 | CTCCAGACCA | 1.11
127 | CTCCAGGTCT | 1.28
128 | CTCCATATCA | 0.969
129 | CTCCATGCAG | 1.36
130 | CTCCCATGGG | 0.997
131 | CTCCCCAGCA | 1.59
132 | CTCCCTCCTA | 1.15
133 | CTCCCTTAGT | 1.13
134 | CTCCGAGGTA | 2.63
135 | CTCCGGTT | 2.24
136 | CTCCGTGGTT | 2.47
137 | CTCCTAAGAA | 1.04
138 | CTCCTAGAGC | 1.08
139 | CTCCTGTGCG | 1.06
140 | CTCCTTACGT | 1.14
141 | CTCGAAATGT | 1.08
142 | CTCGAAGCAC | 3.03
143 | CTCGACCTAC | 1.8
144 | CTCGACGGTG | 0.981
145 | CTCGCCTATC | 1.18
146 | CTCGCGACGT | 1.05
147 | CTCGCGATTA | 1.65
148 | CTCGGCACTT | 1.56
149 | CTCGGCCAGT | 1.08
150 | CTCGGGATTC | 1.37

Row | Sequence | switch fluorescence ratio
151 | CTCGGTAATA | 3.07
152 | CTCGGTCGCG | 0.975
153 | CTCGGTTCTC | 1.07
154 | CTCGTAACGA | 1.05
155 | CTCGTAGGAG | 0.988
156 | CTCGTAGTCC | 1.07
157 | CTCGTCGAAA | 1.1
158 | CTCGTTCATT | 0.988
159 | CTCGTTTTAG | 1.03
160 | CTCTAAATG | 1.1
161 | CTCTACGTCT | 0.964
162 | CTCTACGTTC | 1.13
163 | CTCTACTG | 1.07
164 | CTCTAGATAT | 1.75
165 | CTCTAGTCTG | 0.998
166 | CTCTAGTTTT | 0.944
167 | CTCTCACATC | 1.19
168 | CTCTCAGATT | 1.05
169 | CTCTCATTGG | 1.01
170 | CTCTCCACCG | 1.29
171 | CTCTCCGGAC | 5.46
172 | CTCTCGCAGG | 2.84
173 | CTCTGATCT | 1.04
174 | CTCTGCCATG | 1.36
175 | CTCTGCGATT | 4.77

Row | Sequence | switch fluorescence ratio
176 | CTCTGCGCTC | 4.25
177 | CTCTGGATGG | 1.13
178 | CTCTTAAAGG | 1.01
179 | CTCTTCCTGC | 1.26
180 | CTCTTCGACC | 1.06
181 | CTCTTCGGGA | 1.05
182 | CTCTTGCCCG | 1.12
183 | CTCTTGCTGG | 1.01
184 | CTCTTGGGTG | 0.986
185 | CTCTTGTTGT | 0.975
186 | CTCTTTATTT | 0.985
187 | CTCTTTCTGA | 0.934
188 | CTCTTTGGTG | 1.07
189 | CTCTTTTCAA | 0.963
190 | CTGAAAACG | 1.04
191 | CTGAAATTTC | 1.05
192 | CTGAACCTAC | 1.49
193 | CTGAAGCGCT | 1.04
194 | CTGAAGCGTC | 1.19
195 | CTGAATGAAA | 1.02
196 | CTGACAAAA | 2.11
197 | CTGACAGAGA | 1.02
198 | CTGACAGCAG | 1.38
199 | CTGACTATCA | 0.99
200 | CTGACTATTT | 1.04
